# Results from the antibiotic and cytotoxicity screens of Wong et al. (2023).
# Some of the results follow.
# Legend:
# [1] = system: HSkMC (human skeletal muscle cells); assay: cytotoxicity call (relative viability < 0.9); conditions: 10 µM
# [2] = system: HepG2; assay: cytotoxicity call (relative viability < 0.9); conditions: 10 µM
# [3] = system: S. aureus RN4220; assay: growth inhibition call (relative growth <= 0.2); conditions: 50 µM
SMILES,cytotoxicity call [1],cytotoxicity call [2],growth inhibition call [3]
COc1ccc(S(=O)(=O)Nc2ccc3c(c2)C(=O)N([C@H](C)CO)C[C@H](C)[C@@H](CN(C)S(=O)(=O)c2ccc(OC)cc2)O3)cc1,inactive,inactive,inactive
COC(=O)c1ccc(Cn2cc(C(=O)NO)nn2)o1,inactive,inactive,inactive
Cc1noc(C)c1NC(=O)N(C)C[C@H]1Oc2ncc(C#CCC(C)C)cc2C(=O)N([C@H](C)CO)C[C@H]1C,inactive,inactive,inactive
Cc1noc(C)c1NC(=O)Nc1ccc2c(c1)CC(=O)N([C@@H](C)CO)C[C@@H](C)[C@H](CN(C)Cc1ccc(Cl)c(Cl)c1)O2,inactive,inactive,inactive
C[C@@H]1CN([C@@H](C)CO)C(=O)Cc2cc(NS(=O)(=O)c3ccccc3)ccc2O[C@@H]1CN(C)S(=O)(=O)c1cccs1,inactive,inactive,inactive
CC(C)[C@H](NC(=O)[C@H](C)N(C)C)C(=O)N1CC[C@@H]2Oc3ccc(cc3)/C=C\NC(=O)[C@H](Cc3ccccc3)NC(=O)[C@H]21,inactive,inactive,inactive
CN1C(=O)c2cc(NC(=O)C3CCOCC3)ccc2OC[C@@H]2O[C@@H](CC(=O)NCc3ccccc3F)CC[C@H]21,inactive,inactive,inactive
COc1ccc(S(=O)(=O)N(C)C[C@@H]2Oc3cc(C#CC4CC4)ccc3S(=O)(=O)N([C@H](C)CO)C[C@H]2C)cc1,inactive,inactive,inactive
C[C@@H]1CN([C@@H](C)CO)C(=O)c2cc(NC(=O)Cc3ccccc3)ccc2O[C@@H](C)CCCCO[C@@H]1CN(C)C(=O)NC1CCCCC1,inactive,inactive,inactive
C[C@H](CO)N1C[C@H](C)[C@H](CN(C)S(=O)(=O)c2cccs2)Oc2c(NC(=O)c3cnccn3)cccc2C1=O,inactive,inactive,inactive
Cc1noc(C)c1NC(=O)N(C)C[C@@H]1OCCCC[C@H](C)Oc2ccc(NS(=O)(=O)c3ccc(F)cc3)cc2C(=O)N([C@H](C)CO)C[C@@H]1C,inactive,inactive,inactive
COc1ccc(COC[C@]23NC(=O)N[C@H](c4ccccc4O2)[C@H]3COC(=O)NCCCCCC(=O)NO)cc1,inactive,inactive,inactive
C[C@H]1CN([C@@H](C)CO)C(=O)c2cc(NC(=O)C3CCCCC3)ccc2O[C@H]1CN(C)C(=O)Nc1cccc2ccccc12,inactive,inactive,inactive
COc1ccc(S(=O)(=O)N[C@H]2C=C[C@H](CC(=O)NCCc3ccncc3)O[C@@H]2CO)cc1,inactive,inactive,inactive
C[C@@H]1CCCCO[C@H](CN(C)C(=O)Nc2cccc3ccccc23)[C@@H](C)CN([C@@H](C)CO)C(=O)c2cc(NC(=O)Cc3ccccc3)ccc2O1,inactive,inactive,inactive
COC(=O)CC1C(C)(C)C(=O)C2CC3=C4CC(=O)OC(c5ccoc5)C4(C)CCC3C1(C)C2=O (stereo not given),inactive,inactive,inactive
O=C(C[C@@H]1CC[C@@H]2[C@H](COC[C@H](O)CN2C(=O)CCN2CCCCC2)O1)NCCCN1CCOCC1,inactive,inactive,inactive
C[C@@H]1CCCCO[C@@H](CN(C)C(=O)Nc2ccc(C(F)(F)F)cc2)[C@@H](C)CN([C@H](C)CO)C(=O)c2cc(NC(=O)NC3CCCCC3)ccc2O1,inactive,inactive,inactive
C[C@H](CO)N1C[C@H](C)[C@@H](CN(C)C(=O)Nc2ccccc2)Oc2c(NC(=O)c3ccc(-c4nccs4)cc3)cccc2C1=O,inactive,inactive,inactive
COC(=O)[C@@H](N)CS,inactive,inactive,inactive
COCCNC(=O)C[C@H]1C[C@H]2c3cc(NC(=O)CN(C)C)ccc3O[C@H]2[C@H](CO)O1,inactive,inactive,inactive
CC(C)c1ccc(/C=C/C(=O)O)cc1,inactive,inactive,inactive
COc1ccccc1NC(=O)N(C)C[C@H]1Oc2ncc(Br)cc2C(=O)N([C@@H](C)CO)C[C@H]1C,inactive,inactive,inactive
C[C@@H]1CN([C@H](C)CO)C(=O)c2cc(NC(=O)Nc3cccc4ccccc34)ccc2O[C@@H](C)CCCCO[C@@H]1CN(C)C(=O)C1CCCCC1,inactive,inactive,inactive
CC(C)NC(=O)Nc1ccc2c(c1)C(=O)N([C@H](C)CO)C[C@@H](C)[C@@H](CN(C)S(=O)(=O)c1cn(C)cn1)O2,inactive,inactive,inactive
Cc1ccc(S(=O)(=O)Nc2ccc3c(c2)C(=O)N([C@@H](C)CO)C[C@@H](C)[C@@H](CN(C)Cc2ccc(Cl)c(Cl)c2)OCCCC[C@@H](C)O3)cc1,active,active,inactive
CC(C)C[C@H]1NC(=O)[C@@H](CCCN)NC(=O)[C@H](C(C)C)NC(=O)[C@H]2CCCN2C(=O)[C@@H](Cc2ccccc2)NC(=O)[C@@H](CC(C)C)NC(=O)[C@@H](CCCN)NC(=O)[C@H](C(C)C)NC(=O)[C@H]2CCCN2C(=O)[C@@H](Cc2ccccc2)NC1=O,active,active,inactive
COc1ccc(S(=O)(=O)N(C)C[C@H]2OCCCC[C@@H](C)Oc3ccc(NC(=O)Nc4cccc5ccccc45)cc3C(=O)N([C@H](C)CO)C[C@@H]2C)cc1,inactive,inactive,inactive

SMILES,cytotoxicity call [1],cytotoxicity call [2],growth inhibition call [3]
CCCCCCc1nc(CCCc2cc3c(c(CCCCCC)n2)[Si](C(C)C)(C(C)C)O[C@H]3c2ccccc2)cc2c1[Si](C(C)C)(C(C)C)O[C@H]2c1ccccc1,inactive,inactive,inactive
CNC(=O)c1cc(N)ccc1F,inactive,inactive,inactive
Cc1ccc(S(=O)(=O)N(C)C[C@H]2OCCCC[C@@H](C)Oc3ccc(NC(=O)NC4CCCCC4)cc3C(=O)N([C@H](C)CO)C[C@H]2C)cc1,inactive,active,inactive
Cc1noc(C)c1NC(=O)Nc1ccc2c(c1)CC(=O)N([C@@H](C)CO)C[C@H](C)[C@H](CN(C)S(C)(=O)=O)O2,inactive,inactive,inactive
CO[C@@H]1[C@@H](O)[C@H](O)[C@H](O)[C@H](O)[C@@H]1O,inactive,inactive,inactive
C[C@@H]1CCCCO[C@@H](CN(C)S(=O)(=O)c2ccc(Cl)cc2)[C@H](C)CN([C@@H](C)CO)C(=O)c2cc(NC(=O)Cc3ccccc3)ccc2O1,inactive,inactive,inactive
O=C(C[C@H](Nc1ccc(F)cc1)c1ccccc1)c1ccccc1,inactive,inactive,inactive
COc1ccc(S(=O)(=O)Nc2ccc3c(c2)C(=O)N([C@@H](C)CO)C[C@@H](C)[C@H](CN(C)S(=O)(=O)c2ccc(Cl)cc2)OCCCC[C@H](C)O3)cc1,inactive,inactive,inactive
C[C@@H]1CN([C@@H](C)CO)C(=O)c2cc(NC(=O)Cc3ccccc3)ccc2O[C@@H](C)CCCCO[C@@H]1CN(C)Cc1ccncc1,inactive,inactive,inactive
COc1ccc(OCc2c(-c3ccccc3)nnn2CC(=O)NS(=O)(=O)c2cccc(C#N)c2)cc1,inactive,inactive,inactive
COc1ccc2c3c(n(c2c1)C)[C@@H](CO)N(CC1CCCCC1)C[C@]13CCN(CC1)Cc1nccs1,inactive,inactive,inactive
N[C@@H](COCc1ccccc1)C(=O)O,inactive,inactive,inactive
Cn1c(C(=O)N[C@H](CO)Cc2c[nH]c3ccccc23)cc(=O)n(C)c1=O,inactive,inactive,inactive
Cc1[nH]c2ccccc2c1C(=O)CSc1ccc(Cl)cc1,inactive,inactive,inactive
C[C@H]1CN([C@@H](C)CO)C(=O)c2cc(NC(=O)c3ccncc3)ccc2O[C@@H]1CN(C)S(=O)(=O)c1ccc(F)cc1,inactive,inactive,inactive
C[C@@H]1CN([C@@H](C)CO)C(=O)c2cccc(NC(=O)Nc3cccc4ccccc34)c2O[C@H]1CN(C)C(=O)Nc1ccccc1,active,active,inactive
C[C@@H]1CN([C@H](C)CO)C(=O)c2cccc(NS(C)(=O)=O)c2O[C@H]1CN(C)Cc1ccc(C(=O)O)cc1,inactive,inactive,inactive
O=C(NCc1ccccc1)OCCO,inactive,inactive,inactive
C[C@@H]1CN([C@H](C)CO)C(=O)c2cc(NC(=O)Nc3ccc4c(c3)OCO4)ccc2O[C@@H](C)CCCCO[C@@H]1CN(C)Cc1ccccc1,inactive,inactive,inactive
COC(=O)C1(N2CC3=C[C@@H]([C@@H](O)Cc4ccccc4)n4c(=O)n(C)c(=O)n4[C@@H]3[C@@H](C3CC3)O2)CCCC1,inactive,inactive,inactive
COc1ccc(NC(=O)N(C)C[C@@H]2Oc3ccc(NS(=O)(=O)c4c(C)noc4C)cc3CC(=O)N([C@@H](C)CO)C[C@H]2C)cc1,inactive,inactive,inactive
CC(C)C#Cc1ccc2c(c1)O[C@@H](CN(C)C(=O)c1cccc(F)c1)[C@@H](C)CN([C@H](C)CO)S2(=O)=O,inactive,inactive,inactive
C[C@@H]1CCCCO[C@@H](CN(C)C(=O)C2CCCCC2)[C@@H](C)CN([C@H](C)CO)C(=O)c2cc(NC(=O)CCC(F)(F)F)ccc2O1,inactive,inactive,inactive
Cc1cc(O)cc(=O)o1,inactive,inactive,inactive
Cc1noc(C)c1NC(=O)Nc1ccc2c(c1)C(=O)N([C@@H](C)CO)C[C@H](C)[C@H](CN(C)C(=O)NC(C)C)O2,inactive,inactive,inactive
C[C@@H]1CN([C@H](C)CO)C(=O)c2cc(NC(=O)Cc3ccccc3)ccc2O[C@@H](C)CCCCO[C@H]1CN(C)Cc1ccc2c(c1)OCO2,inactive,inactive,inactive
CCS(=O)(=O)N[C@@H]1C=C[C@H](CC(=O)NCc2ccccn2)O[C@@H]1CO,inactive,inactive,inactive
